The results in this text go back to patent US10130714B2 (priority 2012, dated 2018).

SMILES strings stand for the structures.

The conditions of the data set: rat plasma, 37° C., 24 h, 1 mM, MALDI-TOFMS and LC-QTOFMS. On the procedure:
The ester bonds could be hydrolyzed by endogenous esterases in the blood, liver and kidney.
Sprague Dawley® rat plasma (550 μL) and 50 μL of analyte were mixed to yield a final concentration of 1 mM. The mixture was incubated at 37° C. for 24 h, extracted with methanol (3.6 mL) by vortex mixing at 4° C. for 2H, and then subjected to centrifugation at 10,000 rpm for 20 min. The precipitate was removed by filtration. The filtrate was concentrated under reduced pressure, and the content of enzymatic cleavage products was analyzed by MALDI-TOFMS.
Alternatively, the mixture resulted from incubation was subjected to LC-QTOF MS analysis. The sample was loaded onto a Sep-Pak® Plus tC18 cartridge (Waters Corp), and flushed with deionized water (2×2 mL) to remove excess salts and proteins, followed by elution with MeOH/H2O (1:1, 4×2 mL) to collect analyte. The analyte was evaporated to dryness, and re-dissolved in CH3CN/H2O (1:9, 100 μL) for LC-QTOF MS analysis on a nano Acquity UPLC BEH C18 column (1.7 μm, 75 μm×250 mm, Waters Corp). The injection volume was 2-5 μL and the total run time was 50 min. A mixture of 0.1% formic acid in water (mobile phase A) and 0.1% formic acid in acetonitrile (mobile phase B) was used with a gradient program at a flow rate of 0.3 μL/min at ambient temperature.
In the case of `CC(=O)NC1C(NC(=N)N)C=C(C(=O)OCCCOC(=O)C=Cc2ccc(O)c(O)c2)OC1C(O)C(O)CO` (stereo not drawn) [ZA-1-CA (9)], the “stability / enzymatic cleavage in plasma” value was “cleaved by plasma esterases”.

Take `CC(=O)NC1C(NC(=N)N)C=C(C(=O)O)OC1C(OC(=O)NCCCNC(=O)C=Cc1ccc(O)c(O)c1)C(O)CO` (stereo not drawn) [ZA-7-CA-amide (7)]: the “stability / enzymatic cleavage in plasma” value is on record as “relatively stable in plasma”.

As to `CC(=O)NC1C(N=C(N)N)C=C(C(=O)OCCCOC(=O)c2ccc3ccccc3c2O)OC1C(O)C(O)CO` (stereo not drawn) [ZA-1-HNAP (12)], the “stability / enzymatic cleavage in plasma” value was “gave the expected degradative products”.
